The other results are listed elsewhere or left out. Sequences were assembled here from the parent chain. Values near 0.05 are background.
B1: TEV protease; numbered along this chain (parent)
chain: MGESLFKGPRDYNPISSSICHLTNESDGHTTSLYGIGFGPFIITNKHLFRRNNGTLVVQSLHGVFKVKDTTTLQQHLVDGRDMIIIRMPKDFPPFPQKLKFREPQREERICLVTTNFQTKSMSSMVSDTSCTFPSGDGIFWKHWIQTKDGQCGSPLVSTRDGFIVGIHSASNFTNTNNYFTSVPKNFMELLTNQEAQQWVSGWRLNADSVLWGGHKVFMVKPEEPFQPVKEATQL

Variants of: B1
Experiment: raw area under fraction-flipped curve 0-4 h after induction (AUC4h, not background-subtracted), DNA-recorder readout of cleavage of the substrate (dimensionless); higher = more cleavage of the substrate by the protease variant
Conditions: temperature: 34 °C; time window: 0-4 h after rhamnose induction
Description: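 In vivo DNA recorder in E. coli TOP10(DE3) ΔrhaA at 34 °C. Each TEVp single-site mutant (parent TEVp 0) is paired with a single-site variant of the 7-mer TEVs (canonical ENLYFQ|S). The substrate sits between flexible linkers in a Bxb1-sfGFP-TEVs-SsrA fusion, so cleavage stabilises Bxb1 and speeds flipping of a recombination array, read by NGS. The value is the raw area under the fraction-flipped curve over 0-4 h after rhamnose induction (AUC4h), with ≥20 reads per time point. It is not background-subtracted; inactive controls average about 0.047.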
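Also: Bxb1 expression induced with 0.2% (w/v) L-rhamnose at OD600 near 0.5, cultures sampled hourly, flipped fraction per protease–substrate barcode pair counted by paired-end Illumina sequencing.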

Variant	area with substrate ANLYFQS	area with substrate CNLYFQS	area with substrate FNLYFQS	area with substrate HNLYFQS	area with substrate LNLYFQS	area with substrate MNLYFQS	area with substrate SNLYFQS	area with substrate WNLYFQS	area with substrate GNLYFQS	area with substrate INLYFQS	area with substrate KNLYFQS	area with substrate PNLYFQS	area with substrate RNLYFQS	area with substrate TNLYFQS	area with substrate VNLYFQS	area with substrate YNLYFQS	area with substrate NNLYFQS	area with substrate DNLYFQS	area with substrate QNLYFQS
Q59Y	0.0689	0.0608	0.0558	0.047	0.0692	0.0593	0.088	0.0637											
R51L	0.0483	0.0823		0.052	0.0603	0.062	0.0808	0.0579	0.063	0.06	0.0637	0.0702	0.0544	0.0564	0.063	0.0627			
N53I	0.0534	0.0711		0.0578	0.054	0.0451	0.0419	0.0535				0.054	0.0523	0.0392			0.0407		
N53T	0.0815	0.0674	0.0542	0.0626		0.075	0.0638	0.0576		0.0643	0.0694	0.0688		0.0539	0.0741		0.0413		
N53R	0.08	0.0541	0.0544	0.0522	0.07		0.0685	0.0528	0.0744	0.0386	0.0539	0.0722		0.0702	0.0787		0.0601		
K68Q	0.0648	0.0441	0.0675		0.0075	0.0649		0.0581		0.0576	0.0657			0.0547	0.0592	0.0511	0.0927		
K68L	0.061	0.0531	0.0602	0.0511	0.0813	0.0611	0.0616	0.0597		0.0556	0.0782	0.0674	0.0581	0.0551	0.0613	0.0587	0.0555		
K68E	0.0556	0.0728		0.0656	0.063	0.0655		0.0692	0.0718	0.0688	0.072	0.0754		0.0668	0.0798	0.0737			
F38L	0.0595	0.0611	0.0691	0.0725	0.0511	0.0618	0.063	0.0565	0.0666	0.0644	0.0631	0.056	0.0407	0.052	0.076	0.0562	0.0613		
F38A	0.0647	0.068	0.0688	0.0555	0.0579	0.0506		0.0521	0.0463	0.0596	0.0482	0.0608		0.0677		0.0571	0.044		
F38M	0.0622	0.0637		0.055	0.0701	0.0579	0.0629	0.0321	0.0554		0.0622	0.0642		0.0626	0.0563	0.054	0.0676		
S60Y	0.0709	0.0661		0.0601	0.0663		0.0384	0.0611	0.0565	0.11	0.0566			0.0611	0.0663	0.0463	0.0701		
S60D	0.0296	0.0558		0.0527	0.0582		0.0518	0.0447	0.0513			0.062	0.0559	0.0605		0.0696		0.0703	
S60E	0.049	0.0494	0.0578	0.0518	0.075		0.0584	0.0485	0.0466	0.0423				0.0463	0.0601	0.0408			
S60Q	0.0644							0.0525		0.0637		0.0739		0.0699		0.0613		0.0616	
H47V	0.0852	0.0602	0.0568	0.064	0.0565	0.0606		0.0585	0.0533	0.0669	0.0543	0.0609		0.0594	0.0484	0.0623	0.0586		
H47S	0.0694	0.054	0.0561	0.105	0.041	0.0466	0.0479	0.0543	0.0515	0.0641	0.0602	0.0481		0.0538	0.0326	0.0572	0.0382		
H47I	0.0527	0.0662		0.0576	0.0617	0.0616	0.0516	0.0583	0.0702	0.0553	0.0598	0.0443		0.053		0.058	0.0546		
N52R	0.0719		0.0556			0.0752	0.0562	0.0667								0.0643		0.0284	
N52H	0.0674	0.0654	0.0615	0.0796		0.0605		0.0554			0.0529			0.058		0.0673			
T44C	0.059	0.0588	0.064	0.0578	0.0573	0.059	0.0643		0.0627	0.0643	0.0462	0.0602	0.0663	0.0566	0.0706	0.0583	0.0682		
T44Y	0.0381			0.0533		0.035	0.0509	0.0432			0.0451	0.0379	0.0505	0.0434			0.0208	0.0428	0.0311
G63D	0.03	0.0547		0.0498	0.0562	0.0592	0.0622	0.0577			0.0521	0.0678		0.0555	0.0593	0.0613			
V67M	0.0589	0.0615	0.0691	0.0572	0.0569	0.0639	0.0565	0.0724		0.0733	0.0562	0.0584			0.0618	0.0428			
H62M	0.053	0.0706	0.0685	0.0665		0.0545	0.0794									0.0554			
I43P	0.039		0.0399	0.0479		0.0434	0.0475	0.0478	0.0311	0.0459	0.0402	0.0486		0.0449	0.0459	0.043	0.0457	0.0768	
I43T	0.0305	0.0536		0.0429	0.0579	0.0403	0.0471	0.054		0.0493	0.0689	0.047		0.0565	0.0779	0.0074	0.0708		
